Assay results reported in the supplement of paper PMC4967469.
The IC50 comes from the fitted curve, where viability falls to half of the control; where the fit passes the top or lowest dose, that dose stands as a limit. AUC sums up the same curve from the lowest dose to the 256-fold higher top dose: 1 means no effect, lower means more sensitive. For part of these data: A top dose marked as inferred comes from the curve model; the source does not state it. For part of these data: Where an entry number is given, a second screen of the drug exists; the two often differ.

How the values were obtained:
Test in all cases: Viability of human cancer cell lines after 72 h of drug (GDSC screen)
[1] = compound: Cn1cnc2c(F)c(Nc3ccc(Br)cc3Cl)c(C(=O)NOCCO)cc21 [AZD6244]; conditions: screen: GDSC drug entry 1062
Procedure: (§1)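 Human cancer cell lines in 384-well plates, medium with 10% serum, drug for 72 h over a 256-fold dose range (nine 2-fold or five 4-fold steps up to the top dose). Adherent lines were fixed and stained with the nucleic acid dye Syto60, suspension lines read with resazurin; signal relative to control wells, capped at 0 and 100%. One two-parameter sigmoid per drug and line, fitted in a mixed model over all curves with the slope shared within a line.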

[2] = compound: COc1cc2c(Nc3ccc(NC(=O)c4ccccc4)cc3)ncnc2cc1OCCCN1CCOCC1 [ZM-447439]; conditions: top dose inferred
Procedure: as §1

[3] = compound: CC(=O)c1c(C)c2cnc(Nc3ccc(N4CCNCC4)cn3)nc2n(C2CCCC2)c1=O [PD-0332991]
Procedure: as §1

Row | Cell Line | AUC [1] | IC50 [1] [µM] | AUC [2] | IC50 [2] [µM] | AUC [3] | IC50 [3] [nM]
1 | ECC10 (stomach, suspension, top dose 4 µM) | 0.962 | > 4 | 0.819 | 2.41 | 0.947 | > 4000
2 | EFO-21 (ovary, adherent, top dose 4 µM) | 0.82 | 3.76 | 0.809 | 3.32 | 0.967 | > 4000
3 | EFO-27 (ovary, adherent, top dose 4 µM) | 0.761 | 1.76 | 0.915 | > 4 | 0.756 | 1680
4 | EGI-1 (biliary tract, adherent, top dose 2 µM) | 0.813 | 1.51 | 0.871 | > 2 | 0.812 | 1500
5 | EHEB (lymphoid neoplasm, suspension, top dose 4 µM) | 0.95 | > 4 | 0.899 | > 4 | 0.873 | > 4000
6 | EJM (lymphoid neoplasm, semi-adherent, top dose 4 µM) | 0.992 | > 4 | 0.981 | > 4 | 0.992 | > 4000
7 | EM-2 (chronic myeloid leukaemia, suspension, top dose 4 µM) | 0.975 | > 4 | 0.689 | 0.914 | 0.633 | 612
8 | EMC-BAC-1 (lung adenocarcinoma, adherent, top dose 4 µM) | 0.95 | > 4 | 0.875 | > 4 | 0.867 | > 4000
9 | EMC-BAC-2 (lung adenocarcinoma, adherent, top dose 4 µM) | 0.972 | > 4 | 0.914 | > 4 | 0.72 | 1200
10 | ES1 (Ewing sarcoma, adherent, top dose 4 µM) | 0.985 | > 4 | 0.923 | > 4 | 0.513 | 271
11 | ES3 (Ewing sarcoma, adherent, top dose 2 µM) | 0.778 | 0.853 | 0.699 | 0.47 | 0.653 | 341
12 | ES4 (Ewing sarcoma, adherent, top dose 4 µM) | 0.936 | > 4 | 0.878 | > 4 | 0.76 | 1610
13 | ES5 (Ewing sarcoma, adherent, top dose 4 µM) | 0.938 | > 4 | 0.719 | 1.15 | 0.635 | 625
14 | ES6 (Ewing sarcoma, adherent, top dose 4 µM) | 0.981 | > 4 | 0.981 | > 4 | 0.755 | 1660
15 | ES7 (Ewing sarcoma, adherent, top dose 4 µM) | 0.984 | > 4 | 0.698 | 0.913 | 0.51 | 267
16 | ES8 (Ewing sarcoma, adherent, top dose 4 µM) | 0.964 | > 4 | 0.865 | 3.09 | 0.631 | 559
17 | ES-2 (ovary, adherent, top dose 4 µM) | 0.726 | 0.996 | 0.896 | 3.89 | 0.576 | 392
18 | ESO26 (oesophagus, adherent, top dose 4 µM) | 0.979 | > 4 | 0.945 | > 4 | 0.981 | > 4000
19 | ESO51 (oesophagus, semi-adherent, top dose 4 µM) | 0.607 | 0.557 | 0.845 | > 4 | 0.853 | > 4000
20 | ESS-1 (endometrium, adherent, top dose 4 µM) | 0.982 | > 4 | 0.893 | 3.92 | 0.97 | > 4000
21 | ETK-1 (biliary tract, adherent, top dose 4 µM) | 0.944 | > 4 | 0.969 | > 4 | 0.765 | 1650
22 | EVSA-T (breast, adherent, top dose 4 µM) | 0.991 | > 4 | 0.901 | 3.9 | 0.941 | > 4000
23 | EW-1 (Ewing sarcoma, semi-adherent, top dose 4 µM) | 0.983 | > 4 | 0.964 | > 4 | 0.889 | 3920
24 | EW-3 (Ewing sarcoma, adherent, top dose 4 µM) | 0.966 | > 4 | 0.966 | > 4 | 0.805 | 2370
25 | EW-7 (Ewing sarcoma, semi-adherent, top dose 4 µM) | 0.963 | > 4 | 0.949 | > 4 | 0.974 | > 4000

Row | Cell Line | AUC [1] | IC50 [1] [µM] | AUC [2] | IC50 [2] [µM] | AUC [3] | IC50 [3] [nM]
26 | EW-11 (Ewing sarcoma, adherent, top dose 4 µM) | 0.981 | > 4 | 0.972 | > 4 | 0.772 | 2000
27 | EW-13 (Ewing sarcoma, suspension, top dose 4 µM) | 0.98 | > 4 | 0.965 | > 4 | 0.975 | > 4000
28 | EW-18 (Ewing sarcoma, suspension, top dose 4 µM) | 0.95 | > 4 | 0.86 | 3.72 | 0.946 | > 4000
29 | EW-22 (Ewing sarcoma, adherent, top dose 4 µM) | 0.988 | > 4 | 0.847 | 2.78 | 0.846 | 2750
30 | EW-24 (Ewing sarcoma, semi-adherent, top dose 4 µM) | 0.991 | > 4 | 0.993 | > 4 | 0.992 | > 4000
31 | EoL-1-cell (haematopoietic neoplasm, suspension, top dose 4 µM) | 0.957 | > 4 | 0.537 | 0.311 | 0.604 | 465
32 | FADU (head and neck, adherent, top dose 4 µM) | 0.981 | > 4 | 0.963 | > 4 | 0.843 | 2680
33 | FLO-1 (oesophagus, adherent, top dose 4 µM) | 0.802 | 3.13 | 0.878 | > 4 | 0.71 | 1300
34 | FTC-133 (thyroid, adherent, top dose 4 µM) | 0.853 | 3.63 | 0.868 | > 4 | 0.951 | > 4000
35 | FU97 (stomach, adherent, top dose 4 µM) | 0.986 | > 4 | 0.973 | > 4 | 0.847 | 3080
36 | FU-OV-1 (ovary, adherent, top dose 4 µM) | 0.892 | > 4 | 0.961 | > 4 | 0.974 | > 4000
37 | Farage (B-cell lymphoma, suspension, top dose 4 µM) | 0.99 | > 4 | 0.941 | > 4 | 0.933 | > 4000
38 | G-292 Clone A141B1 (osteosarcoma, adherent, top dose 4 µM) | 0.967 | > 4 | 0.951 | > 4 | 0.867 | > 4000
39 | G-361 (melanoma, adherent, top dose 4 µM) | 0.988 | > 4 | 0.986 | > 4 | 0.93 | > 4000
40 | G-401 (kidney, adherent, top dose 4 µM) | 0.917 | > 4 | 0.934 | > 4 | 0.748 | 1390
41 | GA-10 (Burkitt lymphoma, suspension, top dose 4 µM) | 0.99 | > 4 | 0.924 | > 4 | 0.801 | 1610
42 | GAK (melanoma, adherent, top dose 4 µM) | 0.814 | 2.05 | 0.99 | > 4 | 0.969 | > 4000
43 | GAMG (glioma, adherent, top dose 4 µM) | 0.904 | > 4 | 0.825 | 2.56 | 0.773 | 1630
44 | GB-1 (glioma, adherent, top dose 4 µM) | 0.907 | > 4 | 0.909 | > 4 | 0.794 | 2230
45 | GCIY (stomach, adherent, top dose 4 µM) | 0.821 | 2.71 | 0.98 | > 4 | 0.984 | > 4000
46 | GDM-1 (acute myeloid leukaemia, suspension, top dose 4 µM) | 0.987 | > 4 | 0.985 | > 4 | 0.987 | > 4000
47 | GI-1 (glioma, adherent, top dose 4 µM) | 0.945 | > 4 | 0.846 | 2.74 | 0.984 | > 4000
48 | GI-ME-N (neuroblastoma, adherent, top dose 4 µM) | 0.943 | > 4 | 0.921 | > 4 | 0.818 | 3400
49 | GMS-10 (glioma, adherent, top dose 4 µM) | 0.907 | > 4 | 0.876 | 3.92 | 0.859 | 3280
50 | GOTO (neuroblastoma, adherent, top dose 4 µM) | 0.96 | > 4 | 0.866 | > 4 | 0.862 | > 4000
